Paper PMC6919601, “Identification of Plasmodium dipeptidyl aminopeptidase allosteric inhibitors by high throughput screening” (PLoS ONE, 2019)
About 230 (0.21%) of roughly 110,000 compounds showed an effect of 50% or more. The list shows a part of the results.

target: DPAP1 (Plasmodium falciparum, UniProt Q8IIJ9); test: primary screen, percent inhibition; read by cleavage of a fluorogenic dipeptide substrate; higher = more effect of the substance; design: species or system P. falciparum D10 trophozoite lysates; single well
Sequence (Q8IIJ9 whole entry, looked up): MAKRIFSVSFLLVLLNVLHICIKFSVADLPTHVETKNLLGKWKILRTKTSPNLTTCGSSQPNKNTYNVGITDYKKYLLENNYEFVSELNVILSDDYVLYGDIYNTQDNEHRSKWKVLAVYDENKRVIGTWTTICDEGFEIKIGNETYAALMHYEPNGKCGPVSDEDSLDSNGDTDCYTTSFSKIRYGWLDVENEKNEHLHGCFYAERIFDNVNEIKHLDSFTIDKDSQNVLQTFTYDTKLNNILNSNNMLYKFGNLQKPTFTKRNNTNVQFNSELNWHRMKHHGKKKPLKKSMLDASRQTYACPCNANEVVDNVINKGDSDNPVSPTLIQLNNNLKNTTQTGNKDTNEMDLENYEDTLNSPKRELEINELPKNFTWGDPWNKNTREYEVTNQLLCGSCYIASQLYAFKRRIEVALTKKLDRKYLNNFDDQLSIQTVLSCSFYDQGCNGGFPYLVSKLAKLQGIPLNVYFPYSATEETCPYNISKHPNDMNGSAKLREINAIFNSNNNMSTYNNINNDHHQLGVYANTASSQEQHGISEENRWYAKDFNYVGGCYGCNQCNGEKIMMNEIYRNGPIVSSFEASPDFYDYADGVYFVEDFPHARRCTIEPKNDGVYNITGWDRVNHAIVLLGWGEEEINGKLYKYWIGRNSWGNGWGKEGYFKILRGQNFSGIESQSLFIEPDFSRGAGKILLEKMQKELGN
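Further: 30 min substrate incubation versus DMSO and 10 µM JCP410 controls.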

| Structure (SMILES) | % Inhibition @ 10 uM [%] |
| --- | --- |
| Cc1cccc(C(=O)Nc2ccc(S(N)(=O)=O)cc2)c1 | 9.59 |
| CCOC(=O)CN1CCC(Cc2ccccc2)CC1 | -2.32 |
| CC1=C(C(=O)Nc2ccc(Cl)cc2)C(c2cccs2)NC(S)=N1 (stereo not drawn) | -2.97 |
| COc1ccc(NC(=O)COc2ccccc2)cc1NC(=O)c1ccco1 | -1.63 |
| CCCCOc1ccc(C(=O)Nc2ccc(N3CCN(S(C)(=O)=O)CC3)cc2)cc1 | -4.12 |
| Cc1cc(C)n2nc(CNS(=O)(=O)c3ccc(F)c(C)c3)nc2n1 | -3.96 |
| Cc1cc(C)cc(NC(=O)Cn2cnc3ccccc3c2=O)c1 | 1.96 |
| N#Cc1ccc(S(=O)(=O)N2CCC(n3c(O)nc4ccccc43)CC2)cc1 | -0.671 |
| CCOC(=O)C1=C(C)N=c2s/c(=C/c3cccs3)c(=O)n2C1c1ccccc1 (stereo not drawn) | 12.9 |
| O=C(NCc1cccs1)C1CCCN(c2nc3ccccc3o2)C1 (stereo not drawn) | 5.23 |
| COc1cccc(-c2ccc(C#N)c(SCC(=O)Nc3ccc(C(C)=O)cc3)n2)c1 | -0.68 |
| O=C(O)c1ccc(NC(=O)c2ccc(F)c(S(=O)(=O)N3CCOCC3)c2)cc1 | -2.99 |
| Cn1cccc1Cc1nnc(SCC(=O)NCc2ccc3c(c2)OCO3)n1CCc1ccccc1 | -7.65 |
| CCCCc1cc(CN2CCCCC2)[nH]n1 | 1.9 |
| Cc1ccc(CN2CCN(CC(=O)NCCc3ccc(Cl)cc3)C2=O)cc1 | 0.675 |
| Nc1c(C(=O)c2ccc(Br)cc2)sc2nccc(Nc3ccccc3)c12 | 0.774 |
| Cc1c(C(=O)O)oc2ccc3c(c12)C(O)CC(C)(C)O3 (stereo not drawn) | -1.75 |
| O=C(Nc1ccc(F)cc1F)c1ccccc1Br | -5.11 |
| COc1cccc(C(=O)NC2(C(F)(F)F)NC(=O)N(Cc3ccccc3)C2=O)c1 (stereo not drawn) | -3.39 |
| CCOC(=O)C1=CN(Cc2ccc(F)cc2)C=C(C(=O)OCC)C1c1cc(OC)c(OC)cc1OC | -3.23 |
| COc1ccc(Cl)cc1NC(=O)C1=C(C)NC(=O)NC1c1ccccc1 (stereo not drawn) | -0.598 |
| Cc1ccc(Cl)cc1NC(=O)CC(C(=O)O)N1CCNCC1 (stereo not drawn) | 3.58 |
| O=C(CCCC(=O)c1ccccc1)NCCc1ccccc1F | -3.21 |
| COc1cc(CN2CCCN(C)CC2)cc(OC)c1 | -1.62 |
| CC(C)C[C@H](Nc1nc(-c2ccncc2)cs1)C(=O)NCC#N | -3.04 |
| O=C1NCCN1Cc1ccc(F)cc1Cl | 3.23 |

| Structure (SMILES) | % Inhibition @ 10 uM [%] |
| --- | --- |
| COc1cc2nc(S)n3nc(C(C)Oc4ccc(Br)cc4)nc3c2cc1OC (stereo not drawn) | -0.499 |
| CCCCCOC(=O)C1=C(C)N(C)C(=O)NC1c1ccccc1Cl (stereo not drawn) | 0.736 |
| Cc1ccc(CNc2oc(COc3ccccc3F)nc2C#N)cc1 | 0.726 |
| Cc1[nH]nc2c1C(c1ccc(O)cc1)NC2=O (stereo not drawn) | -5.22 |
| COc1cccc(C(=O)N2CCN(Cc3ccccc3Br)CC2)c1 | 2.3 |
| CC(CNC(=O)c1cc2c(s1)CS(=O)(=O)C2)c1ccccc1 (stereo not drawn) | -5.54 |
| Fc1ccc(CN2CCN(c3ccccc3)CC2)cc1Br | -1.86 |
| CC1CCN(CC(C)C(=O)c2ccccc2)CC1 (stereo not drawn) | -1.82 |
| CCN(CC)C(=O)c1cc(-c2ccccc2OC)on1 | -2.65 |
| CC(C)c1ccc(NC(=O)/C=C/c2ccccc2)cc1 | -0.771 |
| COCCNC(=O)Cn1nc(C)c2sc3ccccc3c2c1=O | -4.26 |
| O=[N+]([O-])c1ccc(CNC2CCCCCC2)cc1 | -4.18 |
| Cn1c2c(c(=O)n(C)c1=O)C(c1cc(Br)ccc1F)C1=C(O)c3ccccc3C1=N2 (stereo not drawn) | -2.24 |
| FC(F)(F)c1ccc2nnc(-c3c(Cl)cccc3Cl)n2c1 | 0.561 |
| O=C(Cn1nc(Cc2ccncc2)c2ccccc2c1=O)Nc1cc(-c2cccc(Cl)c2)no1 | 3.59 |
| O=C(C[n+]1ccccc1)Nc1nc2ccccc2s1 | 6.84 |
| CC[C@H](NC(=O)[C@H](Cc1ccccc1)NC(=O)N1CCOCC1)C(=O)C(=O)NCc1ccccc1 | 1.35 |
| OC1(c2ccc(Cl)cc2)CCN(Cc2ccccc2F)CC1 | -0.0648 |
| COc1ccc(C(=O)c2sc3nc(C)cc(C)c3c2N)cc1OC | -4.68 |
| CC(NC(=O)c1cc([N+](=O)[O-])ccc1Cl)c1ccccc1 (stereo not drawn) | -1.48 |
| CCNC(=S)N1CCN(CC/N=C2/C=C(O)CC(C)(C)C2)CC1 | 1.37 |
| Cc1ccc(CNC(=O)Cn2cc(C(=O)c3ccc(C)cc3)c(=O)c3ccc(C)nc32)cc1 | -1.16 |
| O=[N+]([O-])c1ccccc1CNC1C2CC3CC(C2)CC1C3 (stereo not drawn) | -1.56 |
| Sc1nnc(-c2cccnc2)o1 | -1.46 |
| C=CCC1NC2(CCCCC2)Cc2cc(OC)c(OC)cc21 (stereo not drawn) | 1.43 |
